The structures appear in SMILES notation. The full ranking holds about 13,000 compounds; the median of “IFI” is about 4, and the highest 2% start at about 17. This is one part of the list.

A short description of the assay: GSK_TCMDC: Inhibition Frequency Index (IFI). The number of non-kinase HTS assays where a compound showed > 50 % inhibition, expressed as a percentage of the number of such assays in which the compound was tested (-0 is zero). In kind it is functional.
In turn, `CN(C)CCN(C)Cc1ccc(-c2ccc(NC(=O)c3cccc(C#N)c3)cc2)cc1` had an IFI of 6.19%.
Take `O=C(/C=C/c1ccc(Cl)cc1)NCCCCCN1CCCN(C(=O)Nc2cccc(Cl)c2)CC1`: the IFI was determined as 11%.
With `FC(F)(F)c1ccc2[nH]c(-c3ccc(-c4ccc(CNCC5CCCO5)cc4)s3)nc2c1` (configuration not stated) the figure was 6.86%; with `OC(CNCc1ccccc1OCc1ccccc1)c1cccc(Br)c1` (configuration not stated), 0.82%; with `Cc1cc(OCC2CCCN(c3ncc(C(=O)NC4CC4)cc3Cl)C2)ccc1F` (configuration not stated), 1.85%.
Molecule `O=C(NCCCCN1CCC2c3cccc(O)c3CCC21)c1ccc(-c2ccccc2)cc1` (configuration not stated) returned an IFI of 3.67%.
With `COc1ccc(-c2ccc3c(-c4cccc(S(C)(=O)=O)c4)cnc(N)c3c2)cc1` the figure was 5.22%; with `Cc1ccc([N+](=O)[O-])cc1NC(=O)N(CC(O)c1ccccc1)C1CCCCC1` (configuration not stated), -0%; with `COc1cc(C(=O)NC2CC(C)(C)NC(C)(C)C2)ccc1-c1cc2cc(Cl)c(Cl)cc2[nH]1`, 8.45%.
With `Cc1cc(N(CCO)CCCN2CCCCC2)nc(Nc2ccc(Cl)cc2)n1` the figure was 1.44%; with `CCC(C)Oc1ccc(CCCON2C(N)=NC(N)=NC2(C)C)cc1` (configuration not stated), 5.76%.
With `CCn1cc(C=C2Oc3c(ccc(O)c3CN3CCCCC3)C2=O)c2cc(OC)ccc21` the figure was 2.7%.
Turning to `COc1ccc2ncc(OC)c(CCN3CC[C@@H](NCc4ccc5c(n4)NC(=O)CS5)[C@H](O)C3)c2n1`, the IFI turned out to be 1.53%.
With `CCCCCn1c(Sc2ccc(C#N)c([N+](=O)[O-])c2)nnc1-c1ccc(Cl)cc1` the figure was 5.63%; with `NC1CCN(Cc2ccc(-c3cccc(-c4nc5cc(F)ccc5[nH]4)c3)cc2)C1` (configuration not stated), 4.23%.
With `COc1ccc(C(=O)N2CCC(C(=O)NC(C)c3ccc(-n4ccnc4)cc3)CC2)c2ccccc12` (configuration not stated), the IFI was found to be 0%.
With `COc1cc(F)c2ncc(Cl)c(CCN3CCC(NCc4cc5c(cn4)OCCO5)CC3)c2c1` the figure was 4.35%; with `CC(C)C[C@H](NC(=O)c1cc2ccccc2s1)C(=O)N[C@H]1CCN(Cc2ccc(I)c(OC3CCN(C)C3)c2)C1` (some centres not stated), 16.7%.
With `Cc1csc2nc(C(C)c3ccc(NC(=O)c4cccs4)cc3)oc(=O)c12` (configuration not stated) the figure was 0.73%; with `Cn1ccnc1S(=O)(=O)CCNCc1ccc(-c2ccc3ncnc(Nc4ccc(OCc5cccc(F)c5)c(Cl)c4)c3c2)o1`, 7.3%; with `Cc1ccc(OCC2CCN(c3ncc(C(=O)NC4CC4)cc3Cl)CC2)cc1`, 0%.
For the molecule `CCOC(=O)CNC(=O)N1CCN(C(=O)NCC(=O)OCC)CC1`, the IFI was -0%.
Molecule `CCc1ccc(N2C(N)=NC(N)=NC2(C)C)cc1` had an IFI of 1.46%.
Take `O=C1c2cc(I)ccc2SC1c1ccccc1` (configuration not stated): the IFI turned out to be 1.43%.
`CC1CCCN(C(=O)C(C)Nc2cc(Cl)ccc2N2CCOCC2)C1` (configuration not stated) yielded an IFI of 4.55%.
On to `Cn1c(=O)c2cc(C(=O)NCCCN3CCCCCC3)sc2c2ccccc21`, for which the IFI stood at 3.23%.
In the case of `Cc1ccc(C(=O)Nc2ccc(Nc3ccnc4cc(-c5ccncc5)ccc34)cc2O)cc1`, the IFI came out at 2.94%.
With `COc1ccc2nccc([C@@H](O)CN3CCC(NCCOc4ccc(F)cc4F)CC3)c2c1` the figure was 1.59%; with `Fc1ccc2[nH]c(-c3ccc(-c4ccc(CN5CCC(CCN6CCCCC6)CC5)cc4)s3)nc2c1`, 8.33%; with `COc1ccccc1N1CCN(C(C(=O)NCc2ccc3c(c2)OCO3)c2ccc3c(c2)OCCCO3)CC1` (configuration not stated), 1.38%.
`CC(C)[C@H](NC(=O)c1ccc(O)c(-c2ccc(Cl)c(Cl)c2)c1)C(=O)NC1CCCCCC1` displayed an IFI of 1.48%.
With `Cc1cccc2nc(-c3ccc(-c4cccc(NC(=O)Nc5ccc(F)c(F)c5F)c4)cc3)[nH]c12` the figure was 2.91%; with `O=C(Nc1cccc(F)c1)N1CCC(CN2CCOC(c3ccccc3)(c3ccccc3)C2)CC1`, 2.33%; with `CC(=O)Nc1ccc(S(=O)(=O)Nc2ccc(Nc3nc(C)cc(N(C)C)n3)cc2)cc1`, 0%.
With `COc1cc(Nc2ccnc3cc(-c4nccs4)ccc23)ccc1OCCCc1nc2ccccc2[nH]1` the figure was 9.22%.
Molecule `COc1cc(NC(=O)N2CCc3ccc(OCCN4CCCCC4)cc32)cc(C(F)(F)F)c1` showed an IFI of 3.57%.
With `COc1ccc(CN2CCCN(Cc3cccc(C(=O)Nc4ccc(C(C)(C)C)cc4)c3)CC2)cc1` the figure was 11.2%.
With `COc1cc(NC(=O)NC(CCN2CCC3(CCc4ccccc43)CC2)c2ccc(Cl)c(Cl)c2)cc(OC)c1OC` (configuration not stated) the figure was 6.9%; with `O=C(Nc1ccc(Oc2ccccc2)cc1)N(Cc1ccc(-c2cccc(CN3CCNCC3)c2)cc1)C1CCN(Cc2ccccc2)CC1`, 5.19%; with `COc1cccc(OC)c1OCCCON1C(=N)N=C(N)NC1(C)C`, 2.9%.
Take `Cc1cc(NCCc2ccccc2)nc(NC(=N)Nc2ccc(Cl)cc2)n1`: the IFI worked out at 3.82%.
With `O=c1cc(NCCCNCc2cc(C(F)(F)F)ccc2F)[nH]c2ccccc12` the figure was 2.17%.
With `COc1cccc(CN2CCCC(COC(c3ccc(F)cc3)c3ccc(F)cc3)C2)c1O` (configuration not stated) the figure was 6.3%; with `CC(CCc1ccccc1)NCC(O)c1ccc2c3c(cccc13)C(=O)N2C` (configuration not stated), 0.75%; with `COc1nc2c(CCN3CC[C@H](NCc4cc(C#N)c5c(c4)OCCO5)[C@H](O)C3)ccnc2cc1F`, 2.13%.
As to `Cn1c(/C=C/C(=O)NC2CCC(CCN3CCc4ccc(C#N)cc4CC3)CC2)cc2ccccc21` (configuration not stated), the IFI came to 1.45%.
Molecule `CCCCCCN1CCCN(Cc2ccc(C(=O)Nc3ccc(C(C)C)cc3)cc2)CC1` came in with an IFI of 19.7%.
`Cc1cc(C2CCN(CCCCNC(=O)c3ccc(NC(=O)c4ccc(Cl)cc4)cc3)CC2)c(C)cc1OC(C)C` yielded an IFI of 1.52%.
Regarding `Cc1ccc(N)cc1-c1nc(NC2CC(C)(C)NC(C)(C)C2)nc2c1ccc(=O)n2-c1c(F)cccc1F`, the IFI came out at 4%.
With `CCN(C(=O)CSc1cc(C)c2cc(C)cc(C)c2n1)C1CCS(=O)(=O)C1` (configuration not stated) the figure was 2.24%; with `CN(C)S(=O)(=O)c1ccc(C(=O)N(c2nc(-c3ccccc3)cs2)C2CCCCC2)cc1`, 2.22%; with `CC(C)(C)c1nn(-c2ccccc2)c2[nH]c(=O)c(CNC3CCCCC3)cc12`, -0%.
The molecule `CCN(Cc1ccc(-c2ccc(C(F)(F)F)cc2)cc1)C(=O)Cn1c(SCc2cccc(F)c2F)cc(=O)c2cc(CN3CCCCC3)ccc21` returned an IFI of 13.2%.
With `O=C(/C=C/c1ccc(Cl)c(Cl)c1)NCCCCCN1CCCN(C(=O)Nc2cc(F)cc(F)c2)CC1` the figure was 6.71%.
With `Cc1cccc2nc(-c3cccc(-c4ccc(NC(=O)C(=O)c5cccn5C)cc4)c3)[nH]c12` the figure was 1.83%.
With `CC(=NNC(=N)N)c1ccc2c(c1)Cc1ccccc1-2` the figure was 7.19%.
Molecule `Cc1cc(N/N=C/c2cccc([N+](=O)[O-])c2)c2ccc(F)cc2n1` came in with an IFI of 0.74%.
